The text below walks through data of the supplement of paper PMC4604168 (melanoma cell lines).

The list shows a part of the results. Single values are uncertain, as repeats are few or missing.
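Also: cell number obtained by counting DAPI-stained nuclei in high-throughput microscope images with image analysis software, screen run in 1,536-well plates.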

The test deals with LB2518-MEL. In words: cell count relative to DMSO control; melanoma cells; higher = more viable cells. The conditions noted are these: library dose: low library concentration; 72 h.
On to `N#CC[C@H](C1CCCC1)n1cc(-c2ncnc3[nH]ccc23)cn1` [ruxolitinib] + CCc1ccc(CCOc2ccc(CC3SC(=O)NC3=O)cc2)nc1 [pioglitazone] (first compound 1 µM, partner dose 2 µM), for which the cell count was found to be 103%.
As to `N#CC[C@H](C1CCCC1)n1cc(-c2ncnc3[nH]ccc23)cn1` [ruxolitinib] + Cn1cc(/C=C2\C(=O)Nc3cccnc32)c2ccccc21 [GW441756] (first compound 1 µM, partner dose 0.4 µM), the cell count was determined as 126%.
On to `CC[C@]1(O)C[C@H]2CN(CCc3c([nH]c4ccccc34)[C@@](C(=O)OC)(c3cc4c(cc3OC)N(C=O)[C@H]3[C@@](O)(C(=O)OC)[C@H](OC(C)=O)[C@]5(CC)C=CCN6CC[C@]43[C@@H]65)C2)C1` [vincristine] + COc1cc2c(Oc3ccc4[nH]c(C)cc4c3F)ncnc2cc1OCCCN1CCCC1 [cediranib] (first compound 0.0001 µM, partner dose 0.4 µM), for which the cell count is 97.8%.
The same measure for `Cc1cc(Nc2cc(N3CCN(C)CC3)nc(Sc3ccc(NC(=O)C4CC4)cc3)n2)n[nH]1` [Tozasertib] + CC1(C)NC(=O)N(c2ccc([N+](=O)[O-])c(C(F)(F)F)c2)C1=O [nilutamide] (first compound 0.006 µM, partner dose 1 µM): 87.2%; for `N#CC[C@H](C1CCCC1)n1cc(-c2ncnc3[nH]ccc23)cn1` [ruxolitinib] + COc1ccc(COc2ccc(Cc3cnc(N)nc3N)cc2OC)cc1 [GW2580] (first compound 1 µM, partner dose 1 µM): 126%; for `N#CC[C@H](C1CCCC1)n1cc(-c2ncnc3[nH]ccc23)cn1` [ruxolitinib] + NCC(=O)Nc1ccc(-n2nc(C(F)(F)F)cc2-c2ccc3c(ccc4ccccc43)c2)cc1 [OSU03012] (first compound 1 µM, partner dose 1 µM): 103%.
On to `N#CC[C@H](C1CCCC1)n1cc(-c2ncnc3[nH]ccc23)cn1` [ruxolitinib] + O=C(O)c1ccc(-c2c[nH]c3ncc(-c4ccccc4)cc23)cc1C1CCCC1 [GSK650394] (first compound 1 µM, partner dose 0.16 µM), for which the cell count worked out at 117%.
The compound `N#CC[C@H](C1CCCC1)n1cc(-c2ncnc3[nH]ccc23)cn1` [ruxolitinib] + N#Cc1c(O)c2c(-c3ccc(-c4ccccc4O)cc3)csc2[nH]c1=O [A769662] (first compound 1 µM, partner dose 2 µM) had a cell count of 118%.
For the compound `N#CC[C@H](C1CCCC1)n1cc(-c2ncnc3[nH]ccc23)cn1` [ruxolitinib] + CN(C)S(=O)(=O)c1ccc2c(c1)/C(=C/c1cc3c([nH]1)CCCC3)C(=O)N2 [SU6656] (first compound 1 µM, partner dose 0.4 µM), the cell count was determined as 103%.
Take `Cc1cc(Nc2cc(N3CCN(C)CC3)nc(Sc3ccc(NC(=O)C4CC4)cc3)n2)n[nH]1` [Tozasertib] + COc1ccc2c(c1)CCC1C2CCC2(C)C(NCCCCCCN3C(=O)C=CC3=O)CCC12 [U73122] (first compound 0.006 µM, partner dose 0.4 µM): the cell count turned out to be 100%.
Take `Cc1cc(Nc2cc(N3CCN(C)CC3)nc(Sc3ccc(NC(=O)C4CC4)cc3)n2)n[nH]1` [Tozasertib] + O=C(Nc1ccccc1)c1cc([N+](=O)[O-])ccc1Cl [GW9662] (first compound 0.006 µM, partner dose 2 µM): the cell count was 105%.
In the case of `CC[C@]1(O)C[C@H]2CN(CCc3c([nH]c4ccccc34)[C@@](C(=O)OC)(c3cc4c(cc3OC)N(C=O)[C@H]3[C@@](O)(C(=O)OC)[C@H](OC(C)=O)[C@]5(CC)C=CCN6CC[C@]43[C@@H]65)C2)C1` [vincristine] + C[C@@H]1CCN(C(=O)CC#N)C[C@@H]1N(C)c1ncnc2[nH]ccc12 [CP690550] (first compound 0.0001 µM, partner dose 1 µM), the cell count is 96.5%.
In turn, `N#CC[C@H](C1CCCC1)n1cc(-c2ncnc3[nH]ccc23)cn1` [ruxolitinib] + O=C1NC(=O)/C(=C/c2ccc(-c3ccc(F)cc3O)o2)S1 [AS252424] (first compound 1 µM, partner dose 1 µM) showed a cell count of 103%.
The same measure for `CC[C@]1(O)C[C@H]2CN(CCc3c([nH]c4ccccc34)[C@@](C(=O)OC)(c3cc4c(cc3OC)N(C=O)[C@H]3[C@@](O)(C(=O)OC)[C@H](OC(C)=O)[C@]5(CC)C=CCN6CC[C@]43[C@@H]65)C2)C1` [vincristine] + COc1ccc(-c2ccc3c(N4CCOCC4)nc(N4C[C@@H](C)O[C@@H](C)C4)nc3n2)cc1CO [KU0063794] (first compound 0.0001 µM, partner dose 0.02 µM): 111%.
On to `N#CC[C@H](C1CCCC1)n1cc(-c2ncnc3[nH]ccc23)cn1` [ruxolitinib] + O=C(Nc1cccc(Cl)c1)Nc1ncc(CCNc2ncnc3ccsc23)s1 [SNS314] (first compound 1 µM, partner dose 0.0008 µM), for which the cell count amounted to 115%.
With `N#CC[C@H](C1CCCC1)n1cc(-c2ncnc3[nH]ccc23)cn1` [ruxolitinib] + NC(=O)Nc1cc(-c2cccc(F)c2)sc1C(=O)N[C@H]1CCCNC1 [AZD7762] (first compound 1 µM, partner dose 0.02 µM), the cell count is 139%.
On to `N#CC[C@H](C1CCCC1)n1cc(-c2ncnc3[nH]ccc23)cn1` [ruxolitinib] + CC(C)CCN1c2nc(Nc3cc(F)c(O)c(F)c3)ncc2N(C)C(=O)C1C [BID1870] (first compound 1 µM, partner dose 0.2 µM), for which the cell count stood at 135%.
The compound `Cc1cc(Nc2cc(N3CCN(C)CC3)nc(Sc3ccc(NC(=O)C4CC4)cc3)n2)n[nH]1` [Tozasertib] + Oc1cc(-c2nc(-c3ccccc3)[nH]c2-c2ccncc2)ccc1Cl [L779450] (first compound 0.006 µM, partner dose 0.2 µM) displayed a cell count of 72.5%.
Take `N#CC[C@H](C1CCCC1)n1cc(-c2ncnc3[nH]ccc23)cn1` [ruxolitinib] + COc1ccc(-c2ccc3c(N4CCOCC4)nc(N4C[C@@H](C)O[C@@H](C)C4)nc3n2)cc1CO [KU0063794] (first compound 1 µM, partner dose 0.02 µM): the cell count turned out to be 113%.
Take `CC[C@]1(O)C[C@H]2CN(CCc3c([nH]c4ccccc34)[C@@](C(=O)OC)(c3cc4c(cc3OC)N(C=O)[C@H]3[C@@](O)(C(=O)OC)[C@H](OC(C)=O)[C@]5(CC)C=CCN6CC[C@]43[C@@H]65)C2)C1` [vincristine] + c1cc(-c2cnn3cc(-c4ccc(OCCN5CCCCC5)cc4)cnc23)ccn1 [Dorsomorphin] (first compound 0.0001 µM, partner dose 0.4 µM): the cell count was found to be 87.6%.
Regarding `N#CC[C@H](C1CCCC1)n1cc(-c2ncnc3[nH]ccc23)cn1` [ruxolitinib] + Oc1nc(-c2ccc(C(F)(F)F)cc2)nc2c1CSCC2 [XAV939] (first compound 1 µM, partner dose 2 µM), the cell count came to 139%.
In the case of `Cc1cc(Nc2cc(N3CCN(C)CC3)nc(Sc3ccc(NC(=O)C4CC4)cc3)n2)n[nH]1` [Tozasertib] + Cn1cncc1[C@@](N)(c1ccc(Cl)cc1)c1ccc2c(c1)c(-c1cccc(Cl)c1)cc(=O)n2C [tipifarnib] (first compound 0.006 µM, partner dose 0.01 µM), the cell count turned out to be 86.1%.
`CC[C@]1(O)C[C@H]2CN(CCc3c([nH]c4ccccc34)[C@@](C(=O)OC)(c3cc4c(cc3OC)N(C=O)[C@H]3[C@@](O)(C(=O)OC)[C@H](OC(C)=O)[C@]5(CC)C=CCN6CC[C@]43[C@@H]65)C2)C1` [vincristine] + NC(=O)Nc1cc(-c2cccc(F)c2)sc1C(=O)N[C@H]1CCCNC1 [AZD7762] (first compound 0.0001 µM, partner dose 0.02 µM) returned a cell count of 148%.
With `Cc1cc(Nc2cc(N3CCN(C)CC3)nc(Sc3ccc(NC(=O)C4CC4)cc3)n2)n[nH]1` [Tozasertib] + O=C1NC(=O)/C(=C/c2ccc(-c3ccc(F)cc3O)o2)S1 [AS252424] (first compound 0.006 µM, partner dose 1 µM), the cell count stood at 89.4%.
Turning to `CC[C@]1(O)C[C@H]2CN(CCc3c([nH]c4ccccc34)[C@@](C(=O)OC)(c3cc4c(cc3OC)N(C=O)[C@H]3[C@@](O)(C(=O)OC)[C@H](OC(C)=O)[C@]5(CC)C=CCN6CC[C@]43[C@@H]65)C2)C1` [vincristine] + Cc1cc(N2CCOCC2)cc2[nH]c(-c3c(NC[C@@H](O)c4cccc(Cl)c4)cc[nH]c3=O)nc12 [BMS536924] (first compound 0.0001 µM, partner dose 0.2 µM), the cell count was found to be 89.1%.
Take `CC[C@]1(O)C[C@H]2CN(CCc3c([nH]c4ccccc34)[C@@](C(=O)OC)(c3cc4c(cc3OC)N(C=O)[C@H]3[C@@](O)(C(=O)OC)[C@H](OC(C)=O)[C@]5(CC)C=CCN6CC[C@]43[C@@H]65)C2)C1` [vincristine] + NCC(=O)Nc1ccc(-n2nc(C(F)(F)F)cc2-c2ccc3c(ccc4ccccc43)c2)cc1 [OSU03012] (first compound 0.0001 µM, partner dose 1 µM): the cell count stood at 103%.
Compound `Cc1cc(Nc2cc(N3CCN(C)CC3)nc(Sc3ccc(NC(=O)C4CC4)cc3)n2)n[nH]1` [Tozasertib] + Oc1nc(-c2ccc(C(F)(F)F)cc2)nc2c1CSCC2 [XAV939] (first compound 0.006 µM, partner dose 2 µM) gave a cell count of 87.3%.
The compound `Cc1cc(Nc2cc(N3CCN(C)CC3)nc(Sc3ccc(NC(=O)C4CC4)cc3)n2)n[nH]1` [Tozasertib] + N#Cc1c(O)c2c(-c3ccc(-c4ccccc4O)cc3)csc2[nH]c1=O [A769662] (first compound 0.006 µM, partner dose 2 µM) showed a cell count of 87.2%.
